The text below walks through data of publication PMC4336329 (PLoS ONE, 2015).

In all, about 310,000 compounds went through this assay and about 2,200 (0.71%) showed an effect of 50% or more. Effects have a minus sign here. This is one part of the list.

The target of the assay is human ether-à-go-go-related gene (hERG) potassium channel (human, UniProt Q12809). Description: primary screen, population patch clamp on CHO cells stably expressing hERG.
Sequence of human ether-à-go-go-related gene (hERG) potassium channel (Q12809 whole entry, looked up): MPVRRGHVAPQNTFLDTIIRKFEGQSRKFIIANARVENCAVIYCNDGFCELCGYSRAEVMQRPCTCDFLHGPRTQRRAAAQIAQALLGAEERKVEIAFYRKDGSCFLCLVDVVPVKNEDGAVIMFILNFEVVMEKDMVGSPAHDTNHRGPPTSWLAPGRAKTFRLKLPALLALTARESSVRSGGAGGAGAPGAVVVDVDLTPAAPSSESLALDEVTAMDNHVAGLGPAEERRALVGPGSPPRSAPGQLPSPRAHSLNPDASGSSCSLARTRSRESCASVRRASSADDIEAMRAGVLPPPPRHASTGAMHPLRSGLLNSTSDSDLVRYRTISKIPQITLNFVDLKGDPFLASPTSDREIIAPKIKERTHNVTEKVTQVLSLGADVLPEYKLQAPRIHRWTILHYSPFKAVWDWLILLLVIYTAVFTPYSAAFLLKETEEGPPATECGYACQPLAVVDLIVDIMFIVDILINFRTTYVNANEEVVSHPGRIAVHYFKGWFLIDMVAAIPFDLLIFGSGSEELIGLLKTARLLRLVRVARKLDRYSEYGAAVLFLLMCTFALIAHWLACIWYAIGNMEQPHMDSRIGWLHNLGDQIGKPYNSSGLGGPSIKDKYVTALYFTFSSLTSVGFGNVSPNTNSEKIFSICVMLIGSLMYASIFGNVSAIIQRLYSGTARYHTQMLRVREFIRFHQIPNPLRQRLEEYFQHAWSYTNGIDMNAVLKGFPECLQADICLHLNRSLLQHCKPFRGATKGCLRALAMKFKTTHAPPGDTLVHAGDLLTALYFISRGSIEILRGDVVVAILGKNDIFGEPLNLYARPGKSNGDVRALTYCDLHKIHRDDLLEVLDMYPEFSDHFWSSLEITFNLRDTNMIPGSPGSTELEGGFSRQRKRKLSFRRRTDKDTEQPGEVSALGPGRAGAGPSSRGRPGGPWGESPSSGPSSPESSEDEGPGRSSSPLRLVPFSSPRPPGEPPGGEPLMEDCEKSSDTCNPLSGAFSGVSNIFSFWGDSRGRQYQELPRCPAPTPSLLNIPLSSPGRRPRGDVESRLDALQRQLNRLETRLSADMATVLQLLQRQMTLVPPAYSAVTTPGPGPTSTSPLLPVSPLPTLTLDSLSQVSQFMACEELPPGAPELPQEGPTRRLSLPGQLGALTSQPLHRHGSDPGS
In the case of `COc1ccccc1CNC(=O)c1cn(C)c2ccc(S(=O)(=O)N3CCCC3)cc2c1=O`, the “hERG current change (%, negative = inhibition) at 1uM” value is -4.16%.

As for `CCC(C)(C)n1nnnc1C(c1cc2cccc(C)c2[nH]c1=O)N1CCCC1` (centres unmarked), the “hERG current change (%, negative = inhibition) at 1uM” value was determined as 12.3%. The result for `CCc1sc(C(=O)Nc2ccsc2C(=O)OC)cc1Br` reads -10%; that for `C=CCNC(=S)N1CCN(c2ncc(C(F)(F)F)cc2Cl)CC1`, -2.4%.

Take `O=C1N/C(=N/S(=O)(=O)c2ccccc2)S/C1=C/c1cccnc1`: the “hERG current change (%, negative = inhibition) at 1uM” value is on record as 2.05%. With `COc1ccccc1OCC(=O)OCC(=O)NCCN1C(=O)CSC1=O` the figure was 1.45%; with `O=C(NC1CCCCCC1)C(=S)NC1CCCCC1`, 7.2%; with `CCCCN(CC)C(=O)Cn1c(=O)sc2ccccc21`, 1.04%. With `COc1ccc(CCNC(=O)c2ccc(-c3cccc([N+](=O)[O-])c3)o2)cc1OC` the figure was 5.08%. For the compound `COc1cc2c(cc1OC)C(c1ccccc1C)CC(=O)N2` (centres unmarked), the “hERG current change (%, negative = inhibition) at 1uM” value was 10.2%. The result for `CC(C)(C)OC(=O)N1CC=C2C(C#N)=C(N)C(C#N)(C#N)[C@H](c3cccnc3)[C@H]2C1` reads 8.09%; that for `O=C(Nc1cccc(-c2nnc(-c3ccccc3)o2)c1)C1CCCO1` (centres unmarked), -2.42%; that for `COCC(=O)Nc1ccc([N+](=O)[O-])cc1C`, 9.23%. The result for `CCc1cccc2c(C(=O)COC(=O)C3=NNC(=O)CC3)c[nH]c12` reads -13.2%. With `COC(=O)c1ccc2nc(NC(=O)C3CC3)sc2c1` the figure was 15.4%; with `Cc1ccc(C)c(N=C2NC(=O)CS2)c1`, 15.7%; with `COc1ccc(S(=O)(=O)Nc2ccc(F)cc2)c(C)c1C`, 7.15%. On to `CN(C(=O)c1cc2nc(-c3ccco3)cc(C(F)(F)F)n2n1)C1CCCCC1`, for which the “hERG current change (%, negative = inhibition) at 1uM” value is listed as -4.82%.

As to `CCCc1ccc(Oc2coc3cc(OCC(=O)Nc4ccccc4C)ccc3c2=O)cc1`, the “hERG current change (%, negative = inhibition) at 1uM” value amounted to 8.41%. The result for `COc1ccc(C2=Nn3c(nnc3-c3ccncc3)SC2)cc1` reads -13.3%; that for `Cc1ccc(S(=O)(=O)NC(C)c2ccccc2)cc1[N+](=O)[O-]` (centres unmarked), 14%. With `O=C(CSc1ccc(Cl)cc1)NCc1ccco1` the figure was 10.9%; with `COc1ccc(/C=N/NC(=O)C(=O)N2CCCCCC2)cc1O`, -0.179%; with `Cc1nc([N+](=O)[O-])c(Sc2nc3ccccc3[nH]2)n1Cc1ccccc1`, 7.3%.

On to `Cc1ccc(S(=O)(=O)N(C)CC(=O)O/N=C(\N)c2ccc([N+](=O)[O-])cc2)cc1`, for which the “hERG current change (%, negative = inhibition) at 1uM” value was -9.52%.

As to `Cc1cccc(N(Cc2cc(=O)[nH]c3ccccc23)C(=O)CCl)c1`, the “hERG current change (%, negative = inhibition) at 1uM” value is 17.9%. The result for `C=CCSc1nccc(-c2cc(Cl)sc2Cl)n1` reads -7.75%; that for `Cc1cccc(/C=C\c2nc3ccccc3c(=O)[nH]2)c1`, 13.9%. With `COc1ccc(NC(=O)c2sccc2SCc2cccc(C(F)(F)F)c2)cc1` the figure was 13.3%. `CCC(=O)Nc1cc(C(C)(C)C)ccc1C(C)=O`: the “hERG current change (%, negative = inhibition) at 1uM” value is reported as 18.4%. With `COc1ccc(C2NC(=O)c3ccccc3N2)cc1` (centres unmarked) the figure was 17.7%; with `CSc1nc(N2CCN(C)CC2)c2c(c1C#N)CC(C)(C)OC2`, -14.5%; with `COCCn1c(SCC(=O)N2CCCCC2)nc2c([nH]c3ccccc32)c1=O`, -3.41%.

Take `O=C(O)CCC(=O)N1CCN(c2nc(-c3ccccc3)c3ccccc3n2)CC1`: the “hERG current change (%, negative = inhibition) at 1uM” value is listed as 15%. With `CC1C(=O)Nc2ccccc2N1C(=O)c1ccc(F)cc1` (centres unmarked) the figure was 14.1%; with `Cc1ccc(S(=O)(=O)N2CCOCC2)cc1C(=O)Nc1cccc(C(=O)NC2CC2)c1`, 5.57%.

With `O=S(=O)(NCC1CCCO1)c1ccc(NS(=O)(=O)c2ccc(F)cc2)cc1` (centres unmarked), the “hERG current change (%, negative = inhibition) at 1uM” value is 13.2%. Take `COCCNc1nc2nonc2nc1NC(C)c1ccccc1Cl` (centres unmarked): the “hERG current change (%, negative = inhibition) at 1uM” value is on record as 10.5%. With `CC(C)[C@H](NC(=O)[C@@H]1CSCN1C(=O)OC(C)(C)C)C(=O)NCC1CCC(C(=O)O)CC1` (some centres unmarked) the figure was 8.41%; with `Cn1c(=O)[nH]c(=O)c2c1nc(Br)n2CC(O)COCc1ccccc1` (centres unmarked), 14.2%. With `CCc1nnc(NC(=O)CSc2nc(-c3ccccc3)c(-c3ccccc3)o2)s1` the figure was 8.46%; with `Cn1cnnc1SCC(=O)Nc1c(F)cc(F)cc1Br`, 9.87%.

As to `COc1ccccc1N1C(=O)C2C3C=CC(C3)C2(C)C1=O` (centres unmarked), the “hERG current change (%, negative = inhibition) at 1uM” value worked out at 5.25%. On to `Cc1ccccc1NC(=O)Cc1nc(COC(=O)c2ccc(C(F)(F)F)cc2)cs1`, for which the “hERG current change (%, negative = inhibition) at 1uM” value was 16.5%. With `CCOc1ncccc1C(=O)NCc1ccc(C)cc1` the figure was 3.44%; with `CCc1ccccc1NC(=O)C(CC)Sc1nc2cc3c(cc2c(=O)n1Cc1ccco1)OCO3` (centres unmarked), 10.5%. The result for `CC1(C)C(=O)OC(c2cccn2-c2cccc([N+](=O)[O-])c2)C2(CCCCC2)C1=O` (centres unmarked) reads 0.105%; that for `Cn1c(N2CCN(C(c3ccccc3)c3ccccc3)CC2)nc2ccccc21`, -13.3%; that for `CCOc1ccc(-c2nnn(CC(=O)Nc3ccccc3OC)n2)cc1OCC`, 7.12%. As for `COCCCNC(=O)CNC(=S)N(Cc1ccc(F)cc1)C1CCCCC1`, the “hERG current change (%, negative = inhibition) at 1uM” value is recorded as -2.58%. The result for `Cc1ccc(S(=O)(=O)N2CCCOC2CNC(=O)C(=O)NCCN2CCOCC2)cc1` (centres unmarked) reads 8.3%; that for `CCCC1Cc2c(sc(NC(=S)NC(=O)c3ccccc3)c2C#N)CO1` (centres unmarked), 8.23%; that for `Cc1ccccc1CCN1CCCC(CN(C)C(=O)c2ccc3ncccc3c2)C1` (centres unmarked), -4.16%. With `CCCCCOC(=O)Cn1c(=O)oc2ccccc21` the figure was 8%. The result for `Cc1cccc(NC(=O)CSc2nc3ccccc3nc2N2CCCC2)c1` reads 7.16%; that for `Cc1ccc(S(=O)(=O)N2CCC(C(=O)NNS(=O)(=O)c3ccc(Cl)cc3)CC2)cc1`, 10.1%; that for `Cc1ccccc1CC1(CO)CCCN(C(=O)c2cccc(Cl)c2)C1` (centres unmarked), 7.03%. With `COC(=O)/C(=C/c1c[nH]c2ccccc12)[N+](=O)[O-]`, the “hERG current change (%, negative = inhibition) at 1uM” value amounted to 11.6%.

Take `CCc1nc(SCC(=O)OC)c2c3c(sc2n1)COC(C)(C)C3`: the “hERG current change (%, negative = inhibition) at 1uM” value was found to be 16.1%. Consider `Cc1oc(-c2ccccc2)[n+]([O-])c1C.Cl`, for which the “hERG current change (%, negative = inhibition) at 1uM” value is recorded as 9.06%.

In the case of `CCCn1c(SCc2nc3sc(C)c(C)c3c(=O)[nH]2)nc2ccccc2c1=O`, the “hERG current change (%, negative = inhibition) at 1uM” value was found to be 7.16%. The result for `O=c1[nH]cc(NCCNc2ncc(C(F)(F)F)cc2Cl)c(=O)[nH]1` reads 5.9%. In the case of `COc1ccc(C(=O)Nc2ccccc2N2CCN(C(=O)c3ccccc3)CC2)cc1Br`, the “hERG current change (%, negative = inhibition) at 1uM” value was determined as 13.3%. For `CCC(=O)N1CCc2cc(S(=O)(=O)NCCc3ccc(S(N)(=O)=O)cc3)ccc21`, the “hERG current change (%, negative = inhibition) at 1uM” value came out at 22.4%. With `CCCN(Cc1cc2ccc(C)cc2[nH]c1=O)C(=O)c1cccnc1` the figure was 0.816%; with `CCN(CC)S(=O)(=O)c1cc(NC(=O)COC(=O)c2c(C)noc2C)ccc1C`, 0.523%. As for `CCCn1c(SCC(=O)Nc2nc(C)cs2)nnc1-c1cccnc1`, the “hERG current change (%, negative = inhibition) at 1uM” value is on record as -12.8%. With `Cc1ccc(NC(=O)Cn2ccsc2=N)c([N+](=O)[O-])c1.Cl`, the “hERG current change (%, negative = inhibition) at 1uM” value amounted to 58.8%. With `CCOC(=O)c1cn(Cc2ccccc2)nn1` the figure was 8.02%; with `Cc1ccc(O)c(-c2cc(C(=O)Nc3c(C)n(C)n(-c4ccccc4)c3=O)[nH]n2)c1`, 4.61%. The result for `COc1ccc(S(=O)(=O)Nc2cc(C)c(O)c(S(=O)(=O)c3ccccc3)c2)cc1` reads 5.94%. The result for `CC(=O)NCC(=O)N1CCCC(C(=O)c2ccc(Oc3ccccc3)cc2)C1` (centres unmarked) reads -0.0494%. On to `CCOC(=O)c1c(NC(=O)CSc2nnc(-c3c[nH]c4ccccc34)n2C)sc2c1CCCC2`, for which the “hERG current change (%, negative = inhibition) at 1uM” value was determined as 9.41%. With `O=C(CSc1nc(-c2ccccc2)nc2c1Cc1ccccc1O2)Nc1ccccc1` the figure was 4.64%; with `CC(C)CCn1nnnc1CN1CCN(c2ccccc2)CC1`, 5.07%. With `CCOC1CCc2c(C)nc(N)nc2S1` (centres unmarked) the figure was 13.3%; with `CCNc1nc(NCC)nc(C(=O)Nc2ccccc2)n1`, -6.29%. On to `O=S(=O)(c1ccccc1)N1CCC(O)(CSc2ccc(Cl)cc2)CC1`, for which the “hERG current change (%, negative = inhibition) at 1uM” value is on record as 12.1%. For `CCCCC(=O)NC(=S)NNC(=O)CC#N`, the “hERG current change (%, negative = inhibition) at 1uM” value was found to be 5.04%. The result for `CC(=O)C1=C(C)NC(SCC(N)=O)=C(C#N)C1C` (centres unmarked) reads 14.9%. The result for `CN(C)c1ccc(C(CNS(=O)(=O)c2ccc3ccccc3c2)c2c[nH]c3ccccc23)cc1` (centres unmarked) reads 13.4%; that for `CC1CCN(C(C)C(=O)Nc2ccccc2-c2ccccc2)CC1.O=C(O)C(=O)O` (centres unmarked), 1.94%. The result for `O=[N+]([O-])c1cc(/C=N/N2CCN(C3c4ccccc4-c4ccccc43)CC2)ccc1Cl` reads -0.218%. As for `CCOC(=O)c1csc(-c2ccc3c(c2)CCO3)n1`, the “hERG current change (%, negative = inhibition) at 1uM” value was determined as 6.27%. With `Cc1cccc(-n2cnc3cc(C(=O)N4CCCCC4)ccc32)c1` the figure was 0.334%. Consider `CC(OC(=O)C1=NN(c2ccccc2)C(=O)CC1)C(=O)NC1CCCCC1C` (centres unmarked), for which the “hERG current change (%, negative = inhibition) at 1uM” value amounted to 3.01%. The result for `C=C1SC(=Nc2c(C)cc(C)cc2C)N(C(=O)c2sc3ccccc3c2Cl)C12CCCCC2` reads 18%; that for `COc1ccc(NC(=O)C(=O)NCCCn2ccnc2)cc1`, 5.97%. With `CCCc1cc(=O)oc2c(C)c(OCC(=O)N3CCC(C(=O)O)CC3)ccc12` the figure was 11.1%.
